In all, about 310,000 compounds went through this assay and about 2,200 (0.71%) showed an effect of 50% or more. The effect is printed as a negative number. The list shows a part of the results.
Each compound was assayed against human ether-à-go-go-related gene (hERG) potassium channel (human, UniProt Q12809) (assay: primary screen, population patch clamp on CHO cells stably expressing hERG).
Sequence of human ether-à-go-go-related gene (hERG) potassium channel (Q12809 whole entry, looked up): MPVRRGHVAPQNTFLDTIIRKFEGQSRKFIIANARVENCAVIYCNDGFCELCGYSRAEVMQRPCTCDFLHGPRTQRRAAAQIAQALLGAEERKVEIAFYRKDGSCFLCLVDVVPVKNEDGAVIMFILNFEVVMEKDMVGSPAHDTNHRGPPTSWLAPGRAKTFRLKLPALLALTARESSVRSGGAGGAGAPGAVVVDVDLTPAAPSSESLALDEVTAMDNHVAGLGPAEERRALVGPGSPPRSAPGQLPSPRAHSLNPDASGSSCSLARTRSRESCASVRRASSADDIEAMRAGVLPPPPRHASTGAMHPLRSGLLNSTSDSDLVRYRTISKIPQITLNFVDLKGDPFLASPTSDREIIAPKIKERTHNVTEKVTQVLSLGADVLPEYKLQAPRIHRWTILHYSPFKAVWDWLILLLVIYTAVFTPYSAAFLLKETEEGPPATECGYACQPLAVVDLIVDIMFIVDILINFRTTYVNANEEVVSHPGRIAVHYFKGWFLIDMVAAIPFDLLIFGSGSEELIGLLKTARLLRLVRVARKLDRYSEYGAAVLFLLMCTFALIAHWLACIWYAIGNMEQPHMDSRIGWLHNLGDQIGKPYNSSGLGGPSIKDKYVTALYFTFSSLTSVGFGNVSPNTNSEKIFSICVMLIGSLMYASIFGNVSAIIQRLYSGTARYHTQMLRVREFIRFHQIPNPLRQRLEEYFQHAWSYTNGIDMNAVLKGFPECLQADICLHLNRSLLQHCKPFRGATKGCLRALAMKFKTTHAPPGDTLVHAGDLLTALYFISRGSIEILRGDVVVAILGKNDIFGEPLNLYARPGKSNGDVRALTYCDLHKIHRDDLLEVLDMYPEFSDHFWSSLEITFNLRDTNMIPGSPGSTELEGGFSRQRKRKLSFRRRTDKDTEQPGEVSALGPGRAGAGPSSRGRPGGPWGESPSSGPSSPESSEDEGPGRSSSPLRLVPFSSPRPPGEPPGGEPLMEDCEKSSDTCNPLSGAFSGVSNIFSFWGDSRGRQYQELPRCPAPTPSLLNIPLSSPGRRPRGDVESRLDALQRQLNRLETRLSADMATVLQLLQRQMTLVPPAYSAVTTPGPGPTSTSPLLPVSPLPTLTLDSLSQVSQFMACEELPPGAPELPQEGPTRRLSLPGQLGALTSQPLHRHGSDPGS

Row | SMILES | hERG current change (%, negative = inhibition) at 1uM [%]
1 | CCCN1Cc2cccc(C(=O)N3CCN(c4cc(Cl)ccc4C)CC3)c2C1=O | -8.85
2 | O=C(/C=C/c1ccco1)N(c1ccccn1)c1ccccn1 | 6.44
3 | CCCc1nc2ccc([N+](=O)[O-])cc2[nH]1 | 14.5
4 | O=C(NCc1cccs1)C1CCCN(S(=O)(=O)c2ccc(Br)s2)C1 (stereo not drawn) | 5.4
5 | COc1cc(OC)cc(C(=O)NC(C)c2ccc(Br)cc2)c1 (stereo not drawn) | 0.576
6 | Cc1ccc2c(c1)c(N=Nc1cccc(C(=O)O)c1)c(O)n2C | 6.85
7 | CCOC(=O)C1C(=O)CC(C)(O)C(C(=O)OCC)C1c1ccc(C)s1 (stereo not drawn) | 8.81
8 | COc1ccc(CN2CCC(Oc3cc(C(=O)NC4CC4)ccc3OC)CC2)c(O)c1 | -87.5
9 | COc1ccc(Cc2nnc(SC(C)C(=O)Nc3ccc(C(N)=O)cc3)o2)cc1 (stereo not drawn) | -0.353
10 | O=C(OCC(=O)N1CCN(c2ccccc2)CC1)C1=COCCO1 | 18.2
11 | Cc1ccc2nc(NC(=O)C3CCCN3C(=O)OC(C)(C)C)sc2c1 (stereo not drawn) | -0.341
12 | CCCCN1CCC(O)(c2ccccc2)C(C(=O)c2ccccc2)C1 (stereo not drawn) | 12.8
13 | Nc1ccc(S(=O)(=O)[O-])cn1.[Na+] | 17.4
14 | COc1ccc(-c2cc(=O)oc3cc(OC(=O)C4CCCCC4)ccc23)cc1 | 12.4
15 | CCCNC(=O)COC(=O)c1[nH]c(C)c(C(=O)OCC)c1C | 19.6
16 | Br.COc1cccc(Nc2nc(-c3cccc(N4C(=O)c5ccccc5C4=O)c3)cs2)c1 | 14.1
17 | CC(=O)Nc1nc(CCC(C)C)cc2c1c(=O)oc1ccccc12 | 6.97
18 | CS(=O)(=O)c1cccc(NC(=O)CSc2nnc3n2CCCCC3)c1 | 14.6
19 | CCN(CC)C(=O)CSc1nc(O)c(Cc2ccccc2)c(=O)n1-c1ccc(C)cc1 | 14.3
20 | CN=c1scc(C)n1/N=C/c1ccc(O)cc1O | 5.87
21 | CCOc1cc(CNCc2cc(OC)cc(OC)c2)ccc1OC.O=C(O)C(=O)O | 5.06
22 | CCCNC(=O)OCCC12CC3CC(CC(C3)C1)C2 | 12.5
23 | COc1ccccc1Cn1nnc2c(=O)[nH]c(C3CCN(C(=O)c4ccc(C)cc4)CC3)nc21 | -0.855

Row | SMILES | hERG current change (%, negative = inhibition) at 1uM [%]
24 | C=C(C)CSc1nc(N)c(C#N)c(-c2ccc(C)cc2)c1C#N | 12.8
25 | Cc1nn(C(C)(C)C)c(NC(=O)c2ccc(Cl)cc2Cl)c1Br | 10.1
26 | Clc1cccc(CNc2nnnn2-c2ccccc2)c1 | 18.3
27 | O=C(CSc1ncn[nH]1)N1CCOCC1 | 12.9
28 | O=C(CSc1nnc(-c2ccc(Cl)s2)o1)N1CCc2ccccc21 | -5.29
29 | Cn1c(Cn2c(=O)sc3ccccc32)nnc1SCC(=O)N1CCc2ccccc21 | 0.539
30 | CC1CCN(C(=O)CSc2nnc(CNC(=O)c3ccc(S(=O)(=O)N(C)C)cc3)o2)CC1 | 16.4
31 | Cc1c(-c2ccccc2)c(P(=O)(N2CCOCC2)N2CCOCC2)c2ccccn12 | 10.5
32 | COc1ccc(C(=O)NNC(=O)C(=O)NC(C)c2ccccc2)cc1OC (stereo not drawn) | 0.854
33 | CCOC(=O)c1cc(S(=O)(=O)N2CCc3ccccc32)cn1C | 8.9
34 | Cc1ccc(C(=O)N2CCC(Cc3ccccc3)CC2)cc1[N+](=O)[O-] | 7.84
35 | CC1(C)CC(=O)c2cnc(NC(=O)c3ccco3)nc2C1 | 11.3
36 | O=C(N/N=C\c1ccc(Cl)s1)c1cccs1 | 11.8
37 | CCOC(=O)/C(=C/C1=CC(=C/N(C)C)/C(=O)O1)C(C)=O | 10.2
38 | Brc1ccc2ncc(Br)cc2c1 | 15.7
39 | CC(=O)OC1C2CCC1C(N1CCCCC1)CC2.Cl (stereo not drawn) | 12
40 | Nc1cc(=O)[nH]c(=O)n1Cc1ccccc1 | 10.9
41 | O=C(Nc1nc(N2C(=O)c3ccccc3C2=O)n(-c2ccccc2)n1)c1ccc(Cl)cc1 | 6.92
42 | O=C(CNC(=S)N(Cc1ccccc1)Cc1cccnc1)NC1CC1 | 1.65
43 | Cc1ccccc1C(=O)Nc1nnc(SC(C)C)s1 | 14.4
44 | CC(C)C(=O)Nc1nnc(SCC(=O)NCC2CCCO2)s1 (stereo not drawn) | 5.14
45 | COc1ccc(NS(=O)(=O)c2ccc(N3CCOCC3)c(NC(=O)c3cccc(F)c3)c2)cc1 | -2.11

Reference: publication PMC4336329 (PLoS ONE, 2015)
